Results published in US20080311122A1 (AstraZeneca / MedImmune, published 2008).

Target: T1, recombinant rat HMGB-1, Europium-labeled (rat, UniProt P63159 1-215, limits assumed, Europium label, molar ratio of HMGB-1 to Eu 1:5)
T1 construct: also called Europium-labeled HMGB-1; recombinant HMG1 (Thp-1 assay)
T1 sequence (looked up): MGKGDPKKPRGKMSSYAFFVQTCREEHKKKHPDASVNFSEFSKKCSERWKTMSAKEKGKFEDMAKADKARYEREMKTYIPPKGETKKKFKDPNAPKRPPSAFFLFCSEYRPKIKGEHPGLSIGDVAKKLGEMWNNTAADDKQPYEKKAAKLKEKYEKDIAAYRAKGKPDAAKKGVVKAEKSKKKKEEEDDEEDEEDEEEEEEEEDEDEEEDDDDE
Assay: inhibition of the binding of 2 nM Europium-labeled rat HMGB-1 to THP-1 cells, fluorescence at 615 nm
Experimental: HMG1 binding to THP-1 Cells: Recombinant rat HMGB-1 was labeled using Eu-labelling Kit from PerkinElmer. Molar ratio of HMGB-1 to Eu is 1:5. THP-1 were cultured as the protocol from ATCC. Cells were harvested and suspended at concentration 1×10⁶/ml in assay buffer containing 1×DELFIA L*R binding buffer (PerkinElmer), 50% of DELFIA stabilizer (PerkinElmer) and 0.05% of sodium azide. 100 μl of cells (1×10⁵) was added into wells in 96 well cell culture plate. The plate was incubated with gentle shaking at 4° C. for one hour. 100 μl of assay buffer containing 2 nM of Europium-labeled HMGB-1 mixed with various concentrations (333, 166.5, 83.25, 41.6, 20.8, 10.4 and 5.2 nM) of human anti-HMGB1 antibodies E11 or G2 or soluble human RAGE-Fc, were added into each wells respectively. After one hour incubation with gentle shaking at 4° C., the cells were washed four times with 1×L*R wash buffer (PerkinElmer) by centrifuging at 1200 rpm×5 min. 200 μl of enhancement solution was added into each well to dissociate and enhance Eu fluorescence at 615 nm. The fluorescence was measured with Wallac Victor Fluorometer. Assay was performed in triplicate and human antibody R3-47 was used the negative isotype control.

B1: soluble human RAGE-Fc (Fc fusion)
chain: not shown
notes: also called human-RAGE-Fc fusion protein; not shown: Fc part not described
IC50 (read off the curve): ~80 nM
